Screen size: about 94,000 compounds; about 6,200 (6.6%) were called active. This list was built around the results that the source calls inconclusive (neither active nor inactive); the mix of calls is not that of the screen. Calls follow the shape of the dose curve; as a rule, active = well fitted inhibition curve with a large enough effect; inconclusive = small, poorly fitted or top-dose-only effect; inactive = flat fitted curve, though single readings scatter. Potencies beside an inconclusive call are fits to weak or partial responses and may not hold up.
Test: Cytotoxic Profiling in HEK 293 Cell Line of Diverse Libraries Using Quantitative High-Throughput Screening; also: nearly all actives have a fitted effect of over 60% in size
Settings: HEK 293 viability, ATP luminescence (CellTiter-Glo), 48-72 h; activity change, negative = cytotoxicity: at 115 µM (top of the series) unless noted; series mostly up to 115 µM
Summary of the method: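 HEK 293 seeded at 250 cells/well receive compound via pintool. After 48 or 72 hr at 37 degree Celsius, 5% CO2 and 95% humidity, CellTiter-Glo is dispensed and luminescence read following 10 min at room temperature.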
% is scaled to controls: 0 for no effect and ±100 for the full control effect; potency is read from the fitted curve at half-maximal effect; tags tell the direction and shape of the fitted curve.

SMILES	Potency	activity change, negative = cytotoxicity	outcome
O=C(NCCN1CCOCC1)c1ccc(-c2ccc(N3CCCCCC3)nc2)cc1	active: 35.5 µM	–	–
COC(=O)[C@@H]1C[C@@H](NS(=O)(=O)c2ccc(C(F)(F)F)cc2)CN1C	–	inactive: -10.6%	–
COc1ccc(CNC(=O)COc2ccc(-c3nnc4n3CCCC4)cc2)cc1	–	inactive: 4.87%	–
COc1ccc(-c2noc(-c3cccn3CC(=O)Nc3cc(F)ccc3Cl)n2)cc1F	inconclusive: 39.8 µM [inhibitor, single point]	–	–
COc1ccc(Nc2ccnc(N3CCCC(C(=O)NCCCc4ccccc4)C3)n2)cc1 (configuration not stated)	active: 22.4 µM	–	–
O=C(CC1CCCN(c2cnn(CC3CC3)c(=O)c2)C1)NCc1ccccc1Cl (configuration not stated)	inconclusive: 79.4 µM [inhibitor, partial curve, poor fit]	–	–
Cc1c(-c2ccc(F)cc2)[nH]c2ccc(CNC(=O)c3ccc(CO)o3)cc12	active: 31.6 µM	–	–
Cc1nn(-c2ccccc2)c2c1C(C)N(C1CN(C(=O)Nc3ccccc3F)C1)C2=O (configuration not stated)	inconclusive: 50.1 µM [inhibitor, partial curve, poor fit]	–	–
COc1cccc(C(=O)N2CCCN(c3ccc4nnc(C)n4n3)CC2)c1	–	–	inactive
CC(=O)N1CCC(c2nnc3n2C(C(=O)NCc2ccccc2)CC3)CC1 (configuration not stated)	–	inactive: -14.6%	–
O=S(=O)(c1ccccc1)N1CCCC(c2nc(CCOCc3ccccc3)no2)C1 (configuration not stated)	inconclusive: 50.1 µM [inhibitor, partial curve, poor fit]	–	–
O=C(NCc1ccc(F)cc1F)c1ccc2nnc(C3CCOCC3)n2c1	–	inactive: 2.15% [at 172 µM]	–
CC(C)NC(=O)NC1CC2(CCN(C(=O)CCCN(C)C)CC2)c2ccccc21 (configuration not stated)	–	–	inactive
O=C1c2c(nc(CNCc3ccccc3)n2Cc2ccccc2)NCCN1CC1CC1	inconclusive: 79.4 µM [inhibitor, partial curve]	–	–
Cc1cc2nc3n(c(=O)c2n1CC(=O)NCc1ccccc1)CCCCC3	inconclusive: 20 µM [inhibitor, full curve, poor fit]	–	–
CCOCCCNC(=O)N1CCC2(CC1)CC(N(Cc1ccc(F)cc1)C1CC1)CCO2 (configuration not stated)	inconclusive: 89.1 µM [inhibitor, single point]	–	–
Cc1cn2nc(-c3nc(C4CCCN(C(=O)Cc5cccc(F)c5)C4)no3)cc2c(=O)[nH]1 (configuration not stated)	inconclusive: 89.1 µM [inhibitor, single point]	–	–
CC(C)N1CCC(N2CCCC(N3CCN(c4cccc(C(F)(F)F)c4)CC3)C2)CC1 (configuration not stated)	active: 20 µM	–	–
OC(c1cccc(C(F)(F)F)c1)c1nc(Nc2ccc(N3CCOCC3)cc2)n[nH]1 (configuration not stated)	inconclusive: 79.4 µM [inhibitor, partial curve, poor fit]	–	–
Cn1cnc(S(=O)(=O)N2CCCC(C(=O)NCCCN3CCCCCC3)CCNC(=O)CC2)c1 (configuration not stated)	inconclusive: 89.1 µM [inhibitor, partial curve, poor fit]	–	–
O=C(N1CCCCC1)N1CCN(c2cc(Cl)ncn2)C(=O)C1	–	inactive: -21.5%	–
CN[C@H](C(=O)N[C@H]1C[C@@](O)(C(=O)N[C@H](CC(C)C)C(N)=O)C[C@@H](O)[C@@H]1O)C(C)C	–	inactive: -7.55% [at 172 µM]	–
CCNC(=O)[C@@H]1C[C@H](NC(=O)CO)CN1CC(=O)NCc1cccs1	inconclusive: 56.2 µM [inhibitor, partial curve, poor fit]	–	–

SMILES	Potency	activity change, negative = cytotoxicity	outcome
CC(C)NC(=O)[C@@H]1CCCN1c1nccc(Nc2ccccc2Cl)n1	inconclusive: 31.6 µM [inhibitor, partial curve, poor fit]	–	–
CN1C[C@H](NS(C)(=O)=O)CCC[C@@H](C(=O)N(C)Cc2cccnc2)CC1=O	–	inactive: 1.06% [at 172 µM]	–
COc1ccc(C)cc1NC(=O)Cn1nc2c(cc1=O)CCCCC2	–	inactive: 2.62%	–
COc1ccc2[nH]c3c(c2c1)CCNC31CCN(Cc2scnc2C)CC1	inconclusive: 44.7 µM [inhibitor, partial curve, poor fit]	–	–
COCCCn1c(CN(C)CCc2ccccc2)cnc1S(=O)(=O)C1CCCC1	inconclusive: 56.2 µM [inhibitor, partial curve, poor fit]	–	–
COC(=O)N1CCCN(c2ccc3nnc(C)n3n2)CC1	–	inactive: -3.2% [at 172 µM]	–
COC(=O)c1cccc(CN2C[C@@H]3C(C)(C)COc4ccc(OC)cc4[C@]3(CO)C2)c1	inconclusive: 56.2 µM [inhibitor, partial curve, poor fit]	–	–
O=C(COc1ccc(F)cc1)NC1CCN(c2cc(C(F)(F)F)ncn2)CC1	inconclusive: 14.1 µM [inhibitor, full curve]	–	–
CCCCN1CCN(C(=O)c2csc(N3CCN(c4cccc(Cl)c4)CC3)n2)CC1	active: 22.4 µM	–	–
CS(=O)(=O)N1C[C@@H](COCC2CC2)[C@H](c2ccccn2)C1	–	inactive: -1.07%	–
CCCOc1ccc(CN2CCC(C3CCN(C(C)=O)CC3)C2)cc1 (configuration not stated)	inconclusive: 89.1 µM [inhibitor, single point]	–	–
Cn1c2c(c3ccccc31)CN(C(=O)Nc1ccc(Cl)cc1Cl)CC2	inconclusive: 50.1 µM [inhibitor, partial curve, poor fit]	–	–
CCCCn1c(=O)c(C(=O)NCC2CC2)nc2cccnc21	–	inactive: -24.4% [at 172 µM]	–
O=C(Nc1cccc(C(F)(F)F)c1)c1cnc2c(c1)N(C(=O)Cc1cccc(C(F)(F)F)c1)CCC2	active: 25.1 µM	–	–
COc1ccc(CN2C[C@@H]3C(C(=O)Nc4ccccc4)=NO[C@@H]3C2)cc1OC	inconclusive: 100 µM [inhibitor, partial curve]	–	–
CN(C)c1ccc(-c2noc([C@@H]3CCCN3Cc3ccc(CO)o3)n2)cn1	–	inactive: 0.018% [at 172 µM]	–
COc1ccc(C(=O)N2CCCN(c3cc(-c4ccc(F)cc4)[nH]n3)CC2)cc1	inconclusive: 50.1 µM [inhibitor, partial curve, poor fit]	–	–
CCCCOc1ccc(C(=O)N2CCC(Cc3nc(-c4ccccc4)no3)CC2)cc1	inconclusive: 28.2 µM [inhibitor, partial curve, poor fit]	–	–
CN1c2cc(C(=O)NC3CCCCCC3)ccc2C(=O)N2CCCCC21 (configuration not stated)	inconclusive: 50.1 µM [inhibitor, partial curve, poor fit]	–	–
COc1cccc(C(=O)N(C)C2CCCc3ccccc32)c1 (configuration not stated)	inconclusive: 63.1 µM [inhibitor, full curve, poor fit]	–	–
Cc1ccc(OCC(=O)c2ccc3c(c2)N(C(C)C(=O)NCC2CCCO2)C(=O)CO3)cc1C (configuration not stated)	inconclusive: 89.1 µM [inhibitor, single point]	–	–
CCc1cccc(C)c1NC(=O)Cn1ccn2nc3c(c2c1=O)CCCC3	inconclusive: 56.2 µM [inhibitor, partial curve, poor fit]	–	–
O=C(CCn1cnnn1)N1CCC2(CC1)Nc1ccccc1NC2=O	–	–	inactive

SMILES	Potency	activity change, negative = cytotoxicity	outcome
CCN1C(=O)C2CC3(CCN(Cc4cn(C)c5ccc(OC)cc45)CC3)CN2C1=O (configuration not stated)	inconclusive: 50.1 µM [inhibitor, partial curve, poor fit]	–	–
CCN1C(=O)C2(CCN(S(=O)(=O)Cc3ccccc3Cl)CC2)c2ccccc21	inconclusive: 79.4 µM [inhibitor, partial curve, poor fit]	–	–
O=C1NCc2ccccc2CC12CCN(Cc1ccc(F)c(Cl)c1)CC2	inconclusive: 79.4 µM [inhibitor, partial curve, poor fit]	–	–
CCc1cccc(OC2CN(C(=O)C3CCCN(CC(N)=O)C3)C2)c1 (configuration not stated)	–	inactive: -14.8%	–
CN(Cc1cccc(C(F)(F)F)c1)C(=O)C1CCCC1	–	inactive: -16.5% [at 172 µM]	–
O=C(CCc1ccccc1)N1CC(Oc2ccc(-c3noc(C4CC4)n3)cc2)C1	active: 28.2 µM	–	–
Cc1ccccc1C(=O)N1C(C(=O)N2CCCC2)COC12CCN(C(=O)Cc1ccccc1)CC2 (configuration not stated)	inconclusive: 89.1 µM [inhibitor, single point]	–	–
Cc1nn(-c2ccc(C(F)(F)F)cc2)c(C)c1[C@@H]1C=C[C@@H](NC(=O)CC2(CC(=O)O)CCCC2)C1	–	inactive: -21.8%	–
O=C1CC2(CCN(C(=O)c3ccc(Cl)cc3)CC2)Oc2ccccc21	inconclusive: 79.4 µM [inhibitor, partial curve, poor fit]	–	–
COc1ccc(-c2ccc(C(=O)Nc3ccc(Cl)cc3)cc2)nn1	–	inactive: -26.7% [at 172 µM]	–
CCC(NCc1c(C(=O)N2CCCCCC2)nc2cc(C)ccn12)c1ccc(C)cc1 (configuration not stated)	active: 17.8 µM	–	–
Cc1ccc(S(=O)(=O)N2CCCN(C)c3ccccc32)cc1C	inconclusive: 79.4 µM [inhibitor, partial curve, poor fit]	–	–
O=C(NCCc1ccc(F)cc1)C1CCCN(Cc2cccc(-c3ccc(F)cc3F)c2)C1 (configuration not stated)	active: 39.8 µM	–	–
COc1ccc(CN2CCOc3nc(-c4ccc(C(=O)N(C)C)cc4)ncc3C2=O)cc1	inconclusive: 112 µM [inhibitor, partial curve, poor fit]	–	–
CC(C)(C)OC(=O)N1CC(Nc2cccc(Oc3ccccc3)c2)C1	inconclusive: 89.1 µM [inhibitor, partial curve]	–	–
CCN(CC)C(=O)CC[C@@H]1CNC(=O)[C@@H]2C[C@H](NC(=O)c3cccs3)CN12	–	inactive: 2.23% [at 172 µM]	–
COc1ccc(NC(=O)O[C@@H]2CC[C@]3(C)C(CC[C@@H](O)[C@H]3CC(=O)NCc3ccccc3OC)[C@]2(C)CO)cc1 (some centres not stated)	inconclusive: 50.1 µM [inhibitor, partial curve, poor fit]	–	–
COC[C@H]1NC(=O)CC[C@H]1C(=O)Nc1cccc(OC(F)(F)F)c1	–	inactive: 0.276%	–
O=C(NCCn1cccn1)c1ccc(S(=O)(=O)N2CCC(O)C2)cc1 (configuration not stated)	–	–	inactive
COc1ccccc1Oc1ncccc1CNC(=O)Nc1cccc(C#N)c1	inconclusive: 12.6 µM [inhibitor, partial curve, poor fit]	–	–
COc1ccccc1-c1ccc(CN2CCC(NC(=O)Cc3ccccc3)C2)cc1 (configuration not stated)	active: 39.8 µM	–	–

From PubChem BioAssay AID1345083 (National Center for Advancing Translational Sciences (NCATS), 2018)
